Test results taken from PubChem BioAssay AID588855 (National Center for Advancing Translational Sciences (NCATS), 2011).
Several values for one entry are separate records, joined by “and”; a condition that tells them apart may be missing. Equal entries are not always repeated. The campaign covered roughly 410,000 compounds. About 5,000 (1.2%) were called active. Inconclusive means that the source gave no clear call. Such entries were picked first, then a sample of the others. Calls follow the shape of the dose curve; as a rule, active = well fitted inhibition curve with a large enough effect; inconclusive = small, poorly fitted or top-dose-only effect; inactive = no such curve, though single readings can be large or run the other way. A potency beside an inconclusive call is a rough fit, not a confirmed value.

experiment: qHTS for Inhibitors of TGF-b; conditions: HepG2 CAGA-GFP TGF-b/SMAD3 reporter, GFP fluorescence, 18 h, TGF-beta stimulated, 500 pg/mL final; series mostly up to 46.1 µM; activity, negative = inhibition: at the top concentration; also: nearly all actives have a fitted effect of over 65% in size
In short: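 TGF-beta reporter screen: HEPG2 CAGA-GFP, 1% FBS, 500 pg/mL TGF-beta final, 18 h; per-cell GFP summed per well; curves fitted and categorized by class.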
% is scaled to controls: 0 for no effect and ±100 for the full control effect; potency is read from the fitted curve at half-maximal effect; tags tell the direction and shape of the fitted curve.

Row | SMILES | Potency | activity, negative = inhibition
1 | CC1(Cc2cc(Cl)ccc2C(F)(F)F)C(=O)Nc2ccc(S(=O)(=O)NC3CCCCC3)cc21 (stereo not given) | inconclusive: 7.08 µM [inhibitor, full curve, poor fit] | 
2 | CC1(C)CC(=O)c2cc(C(=O)Nc3cccc4ccccc34)c(=O)[nH]c2C1 |  | inactive: -14.6%
3 | N#C/C(=C/c1cccc(O)c1)C(=O)NCc1ccc(Cl)cc1 | inconclusive: 35.5 µM [inhibitor, single point] | 
4 | COc1ccccc1CN(C)C(=O)c1cccc(S(=O)(=O)N2CCN(Cc3ccccc3)CC2)c1 | inconclusive: 35.5 µM [inhibitor, single point] | 
5 | Cc1cccc(NC(=O)CCNS(=O)(=O)c2cccc3nonc23)c1C |  | inactive: -1.8%
6 | CCCCOc1ccc(C(=O)NCC2(c3ccccc3)CCOCC2)cc1 | inconclusive: 25.1 µM [inhibitor, single point] | 
7 | CCc1cc2c(cc3c(=O)n(CC(=O)NCc4cccc(Cl)c4)nc(CC)n32)s1 | inconclusive: 5.62 µM [inhibitor, single point] | 
8 | Cc1ccc2c(c1)CO[C@@]21O[C@H](CCO)C[C@H](O)[C@H]1O |  | inactive: 14.2%
9 | CCC(C)Sc1cc(C)c(C#N)c2nc3ccccc3n12 (stereo not given) |  | inactive: -10.9%
10 | Cc1cc(C)c2c(=O)n(CC(=O)Nc3ccc(Cl)cc3)sc2n1 | inconclusive: 22.4 µM [inhibitor, single point] | 
11 | CC(=O)Nc1cccc(Oc2cc(C#N)c(C#N)cc2N2CCCCCC2)c1 | inconclusive: 35.5 µM [inhibitor, single point] | 
12 | COc1cccc(/C(C)=N/Nc2ccc(S(=O)(=O)N3CCCCC3)cn2)c1 | inconclusive: 17.8 µM [inhibitor, single point] | 
13 | CC(C)c1ccc(OCC(=O)N2CCN(c3ccccn3)CC2)c(Br)c1 | inconclusive: 35.5 µM [inhibitor, single point] | 
14 | Cc1ccc(C)c(N2CCN(c3nnnn3-c3ccccc3)CC2)c1 |  | inactive: 0%
15 | COc1cc(/C=C/C(=O)O)cc(OC)c1OC |  | inactive: 0.492%
16 | CCC(C)c1ccccc1N1CC(C(=O)N2CCN(S(=O)(=O)c3cccc([N+](=O)[O-])c3)CC2)CC1=O (stereo not given) | inconclusive: 35.5 µM [inhibitor, partial curve, poor fit] | 
17 | CN(C)CCCN(C(=O)COc1ccc(Cl)cc1)c1nc2c(F)cccc2s1 | inconclusive: 5.62 µM [inhibitor, single point] | 
18 | CC(C)(C)OC(=O)CC[C@@H](C(=O)N1CCN(C(=O)OC(C)(C)C)CC1)n1cc(C(Cc2ccc(O)cc2)NC(=O)OC(C)(C)C)nn1 (stereo not given in full) | inconclusive: 3.16 µM [inhibitor, single point] | 
19 | Cc1cc(Cl)ccc1NC(=S)NCCc1ccc(Cl)cc1 | inconclusive: 22.4 µM [inhibitor, single point] | 
20 | COc1cccc(/C=N/n2cnc3cc(C)c(C)cc32)c1OC | inconclusive: 3.98 µM [inhibitor, single point] | 

Row | SMILES | Potency | activity, negative = inhibition
21 | CCCCCC(=O)Nc1ccc(C(=O)CN2C(=O)NC3(CCCCCC3)C2=O)cc1 |  | inactive: -3.13%
22 | Fc1ccccc1/C=N/Nc1ncnc2ccccc12 | inconclusive: 12.6 µM [inhibitor, partial curve, poor fit] | 
23 | COc1ccc(C(=O)NCC(c2cccnc2)N2CCc3ccccc3C2)cc1 (stereo not given) | inconclusive: 8.91 µM [inhibitor, partial curve, poor fit] | 
24 | COc1ccc(-c2c(C)nn3c(N4CCN(Cc5ccccc5)CC4)cc(C)nc23)cc1OC | inconclusive: 5.62 µM [inhibitor, single point] | 
25 | NC(=S)N/N=C1/CCSc2ccc3ccccc3c21 | inconclusive: 35.5 µM [inhibitor, single point] | 
26 | CCn1c(COc2ccc(=O)n(-c3ccccc3)n2)nnc1SCc1ccccc1 | inconclusive: 35.5 µM [inhibitor, single point] | 
27 | Cc1ccc(-c2csc(NC(=O)CSC3=NCCS3)n2)cc1 | inconclusive: 0.112 µM [inhibitor, full curve, poor fit] | 
28 | CCOC(=O)c1ccc(NC(=O)c2nc[nH]c2C(=O)N[C@@H](CC(C)C)C(=O)OC(C)(C)C)cc1 | inconclusive: 8.91 µM [inhibitor, partial curve] | 
29 | O/N=C/c1ccccc1Oc1ccc(Cl)cc1 | inconclusive: 11.2 µM [inhibitor, single point] | 
30 | COc1ccc(C(CNC(=O)c2cccc(S(=O)(=O)Nc3ccc(F)cc3)c2)N2CCCCC2)cc1 (stereo not given) | inconclusive: 35.5 µM [inhibitor, single point] | 
31 | O=C1OC(c2ccccc2)=C/C1=C\N1CCOCC1 |  | inactive: 9.79%
32 | CCC(CC)C(=O)Nc1cccc(-c2nc3cccnc3s2)c1 | inconclusive: 1.26 µM [inhibitor, full curve, poor fit] | 
33 | Cc1ccc(C(=O)N/N=C\c2ccc([N+](=O)[O-])o2)cn1 | inconclusive: 35.5 µM [inhibitor, single point] | 
34 | OC(CNC1CCCCC1)CON=C1CCSc2c(Cl)cccc21 (stereo not given) | inconclusive: 35.5 µM [inhibitor, single point] | 
35 | Cn1c(=O)c2ncn(CC(=O)Nc3cc(C(F)(F)F)ccc3N3CCOCC3)c2n(C)c1=O | inconclusive: 17.8 µM [inhibitor, single point] | 
36 | CC(C)(C)[C@@H]1CCC(=O)N(CC[C@H](Sc2ccc(Br)cc2)c2ccccc2)CC1 | inconclusive: 25.1 µM [inhibitor, single point] and inconclusive: 35.5 µM [inhibitor, single point] | 
37 | c1ccc2[nH]c(CN3CCN(c4ncnc5c4oc4ccccc45)CC3)nc2c1 | inconclusive: 3.98 µM [inhibitor, full curve, poor fit] | 
38 | CCC(=NCCc1c(C)[nH]c2ccccc12)C1=C(O)CC(c2ccccc2)CC1=O (stereo not given) | inconclusive: 15.8 µM [inhibitor, partial curve, poor fit] | 
39 | COCCOC(=O)C1=C(C)Nc2ncnn2C1c1ccc(F)cc1 (stereo not given) | inconclusive: 35.5 µM [inhibitor, single point] | 
40 | NC(=O)CSc1nnc(NC(=O)c2cccc(S(=O)(=O)N3CCCCC3)c2)s1 | inconclusive: 35.5 µM [inhibitor, single point] | 
